Laboratory results taken from paper PMC12234955 (Nature Communications, 2025).

Target: MB52 (megabody: NB52 VHH fused to the circular permutated extracellular adhesin domain of Helicobacter pylori …)
Experiment: cryo-EM structure

B1: Human LGR4 ([…]), C-terminal Flag tag (receptor)
chain: not shown
- binding result: binds
